Measured values taken from the BET-seq Pho4 binding data (Le et al. 2018).
This is one part of the list. The energies were worked out here from pooled read counts, against the library average; single values are noisy.

The sequences below were run against T1, Pho4 (S. cerevisiae) (UniProt P07270) (assay: relative binding free energy (BET-seq); higher = weaker binding). Conditions: reference: library average.
T1 sequence: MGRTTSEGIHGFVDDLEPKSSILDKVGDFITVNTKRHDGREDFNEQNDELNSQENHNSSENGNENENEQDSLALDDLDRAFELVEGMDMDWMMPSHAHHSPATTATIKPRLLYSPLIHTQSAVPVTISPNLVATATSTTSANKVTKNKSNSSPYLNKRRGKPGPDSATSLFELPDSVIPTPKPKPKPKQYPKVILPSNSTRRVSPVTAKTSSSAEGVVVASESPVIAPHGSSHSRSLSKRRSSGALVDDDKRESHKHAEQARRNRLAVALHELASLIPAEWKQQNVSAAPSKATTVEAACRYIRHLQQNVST
For GTTGTCACGTGATATT, the “relative binding free energy” value was 0.22 kcal/mol. With TGGAGCACGTGGTGTG the “relative binding free energy” value was -0.12 kcal/mol. In the case of GTTTTCACGTGTAATT, the “relative binding free energy” value was 0.4 kcal/mol. For TTACACACGTGGTTGT, the “relative binding free energy” value was 0 kcal/mol. For TAATACACGTGGGATG, the “relative binding free energy” value was 0.04 kcal/mol. TCAATCACGTGTGAGT was tested, and the “relative binding free energy” value was 0.27 kcal/mol. CGTGACACGTGGGCGT was tested, and the “relative binding free energy” value was -0.11 kcal/mol. In the case of ATTGGCACGTGTACAT, the “relative binding free energy” value was 0.02 kcal/mol. With GCTTACACGTGGTTGA the “relative binding free energy” value was 0.2 kcal/mol. For GGATGCACGTGTGGGC, the “relative binding free energy” value was 0 kcal/mol. For GGATTCACGTGCATGT, the “relative binding free energy” value was 0.24 kcal/mol. GACGTCACGTGCTGGG was tested, and the “relative binding free energy” value was 0.17 kcal/mol. ATTGCCACGTGGGGTA was tested, and the “relative binding free energy” value was -0.35 kcal/mol. In the case of GGGGACACGTGGTCAT, the “relative binding free energy” value was -0.12 kcal/mol. In the case of ATCCGCACGTGAGGGT, the “relative binding free energy” value was 0.07 kcal/mol. With GGCGTCACGTGGACTG the “relative binding free energy” value was 0.17 kcal/mol. With AAGGTCACGTGGGAGC the “relative binding free energy” value was 0.06 kcal/mol. For ATAGACACGTGGAGTT, the “relative binding free energy” value was -0.06 kcal/mol. With TTCTGCACGTGGTGAG the “relative binding free energy” value was 0.02 kcal/mol. For TGCGGCACGTGCTATG, the “relative binding free energy” value was -0.18 kcal/mol. For TGAGACACGTGGTTGT, the “relative binding free energy” value was -0.01 kcal/mol. With GTTAGCACGTGATATA the “relative binding free energy” value was 0.11 kcal/mol. TTGTTCACGTGTCCGG was tested, and the “relative binding free energy” value was 0.29 kcal/mol. With CTGTGCACGTGCTGAG the “relative binding free energy” value was -0.01 kcal/mol. TGGTACACGTGTAGTT was tested, and the “relative binding free energy” value was 0.07 kcal/mol. For ATCAACACGTGTTATT, the “relative binding free energy” value was 0.17 kcal/mol. In the case of GTTTGCACGTGGCAAG, the “relative binding free energy” value was -0.11 kcal/mol. In the case of AGACGCACGTGTTTGT, the “relative binding free energy” value was -0.27 kcal/mol. For TTAAGCACGTGTCGTA, the “relative binding free energy” value was -0.06 kcal/mol. GTGGTCACGTGGAGCA was tested, and the “relative binding free energy” value was 0.18 kcal/mol. In the case of TTGTGCACGTGTGTTC, the “relative binding free energy” value was 0.02 kcal/mol. With CCATGCACGTGGTGTG the “relative binding free energy” value was -0.18 kcal/mol. For CATGGCACGTGGAGTG, the “relative binding free energy” value was -0.04 kcal/mol. With TTTTTCACGTGTCTGT the “relative binding free energy” value was 0.34 kcal/mol. In the case of AATAGCACGTGGTTAG, the “relative binding free energy” value was -0.14 kcal/mol. With TAATGCACGTGATAGG the “relative binding free energy” value was 0.01 kcal/mol. In the case of GGGTACACGTGGTAAA, the “relative binding free energy” value was 0.08 kcal/mol. With GTGCACACGTGAGGAT the “relative binding free energy” value was 0.38 kcal/mol. In the case of CTTAGCACGTGGCGGG, the “relative binding free energy” value was -0.1 kcal/mol. With CTTGACACGTGGGGGT the “relative binding free energy” value was -0.23 kcal/mol. AGTTTCACGTGTTCTA was tested, and the “relative binding free energy” value was 0.3 kcal/mol. In the case of GTTAGCACGTGTGTTT, the “relative binding free energy” value was 0.1 kcal/mol. CAGTACACGTGGGTTG was tested, and the “relative binding free energy” value was -0.18 kcal/mol. For CGTGGCACGTGGGTGC, the “relative binding free energy” value was -0.19 kcal/mol. With ATTGACACGTGTGTGT the “relative binding free energy” value was -0.02 kcal/mol. With TACGGCACGTGAAGGG the “relative binding free energy” value was 0.12 kcal/mol. For CGCGACACGTGTTGGT, the “relative binding free energy” value was 0.2 kcal/mol. GGTCACACGTGGGACG was tested, and the “relative binding free energy” value was 0.17 kcal/mol. In the case of TCCGTCACGTGTTTTG, the “relative binding free energy” value was 0.18 kcal/mol. With GGGTACACGTGACGGT the “relative binding free energy” value was 0.26 kcal/mol. With GGTGGCACGTGCACGG the “relative binding free energy” value was -0.17 kcal/mol. TTGGCCACGTGTCGTT was tested, and the “relative binding free energy” value was -0.1 kcal/mol. TGACGCACGTGTTGGT was tested, and the “relative binding free energy” value was -0.04 kcal/mol. For GTCGTCACGTGGATGG, the “relative binding free energy” value was 0.02 kcal/mol. With TTTGGCACGTGTAGGA the “relative binding free energy” value was -0.03 kcal/mol. With TGGAACACGTGCTTGG the “relative binding free energy” value was -0.04 kcal/mol. With AGTATCACGTGGTCCG the “relative binding free energy” value was 0.32 kcal/mol. In the case of ATGGACACGTGGCTGA, the “relative binding free energy” value was -0.02 kcal/mol. With TCATACACGTGATTGT the “relative binding free energy” value was 0.3 kcal/mol. TTTACCACGTGGTTTT was tested, and the “relative binding free energy” value was 0.01 kcal/mol. With GTAATCACGTGGATGG the “relative binding free energy” value was 0.06 kcal/mol. ATTATCACGTGTTAGG was tested, and the “relative binding free energy” value was 0.14 kcal/mol. For GGGTTCACGTGGCCGT, the “relative binding free energy” value was 0.39 kcal/mol. In the case of TTCGGCACGTGAGACG, the “relative binding free energy” value was 0.19 kcal/mol. For ATTGTCACGTGTATGG, the “relative binding free energy” value was 0.19 kcal/mol. TTGGTCACGTGTATTC was tested, and the “relative binding free energy” value was 0.12 kcal/mol. For TTGTACACGTGGGCGC, the “relative binding free energy” value was -0.17 kcal/mol. With TTAGGCACGTGACGAG the “relative binding free energy” value was -0.03 kcal/mol. For TTTGACACGTGATAAT, the “relative binding free energy” value was 0.03 kcal/mol. In the case of TGCGACACGTGGTTCA, the “relative binding free energy” value was 0.14 kcal/mol. In the case of AGTGGCACGTGGCTTA, the “relative binding free energy” value was -0.09 kcal/mol. For AGGGTCACGTGGGACT, the “relative binding free energy” value was 0.01 kcal/mol. GGGGGCACGTGTAGCT was tested, and the “relative binding free energy” value was -0.07 kcal/mol. For TATTACACGTGGTATT, the “relative binding free energy” value was -0.02 kcal/mol. TTTTACACGTGGAAGT was tested, and the “relative binding free energy” value was 0.17 kcal/mol. For TCGTTCACGTGGATAT, the “relative binding free energy” value was 0.27 kcal/mol. For ATGTGCACGTGAGGGC, the “relative binding free energy” value was 0.14 kcal/mol. GGTAACACGTGCTTGA was tested, and the “relative binding free energy” value was 0.06 kcal/mol. TGGGCCACGTGAGGAA was tested, and the “relative binding free energy” value was 0.15 kcal/mol. In the case of CTTGGCACGTGGTATG, the “relative binding free energy” value was -0.26 kcal/mol. For TTGGACACGTGATATG, the “relative binding free energy” value was 0.12 kcal/mol. With GCGCACACGTGTTGGG the “relative binding free energy” value was 0.06 kcal/mol. In the case of ATGTTCACGTGCTTTG, the “relative binding free energy” value was 0.27 kcal/mol. GTTTCCACGTGTCGTG was tested, and the “relative binding free energy” value was 0.23 kcal/mol. With CGGTGCACGTGATTTA the “relative binding free energy” value was 0.17 kcal/mol. GGGCACACGTGTGCGG was tested, and the “relative binding free energy” value was 0.09 kcal/mol. In the case of TAAGACACGTGATGGA, the “relative binding free energy” value was 0.27 kcal/mol. In the case of ATTATCACGTGTTACT, the “relative binding free energy” value was 0.25 kcal/mol. With GTAGGCACGTGTGGGG the “relative binding free energy” value was 0.04 kcal/mol. For TTATTCACGTGAGGTG, the “relative binding free energy” value was 0.4 kcal/mol. TAGGTCACGTGCAATT was tested, and the “relative binding free energy” value was 0.13 kcal/mol. TTATTCACGTGATAGC was tested, and the “relative binding free energy” value was 0.33 kcal/mol. With TAGGGCACGTGAATGA the “relative binding free energy” value was 0.21 kcal/mol. For CGTTGCACGTGCTTAG, the “relative binding free energy” value was 0.01 kcal/mol. For TGTGACACGTGAGTTC, the “relative binding free energy” value was 0.26 kcal/mol. For TTAATCACGTGGGAAG, the “relative binding free energy” value was 0.05 kcal/mol. For CTGGTCACGTGATGGC, the “relative binding free energy” value was 0.09 kcal/mol. For ACGGGCACGTGGAGGC, the “relative binding free energy” value was -0.05 kcal/mol. In the case of GGCTGCACGTGAGGAA, the “relative binding free energy” value was 0.32 kcal/mol. With TCTAGCACGTGGTAAG the “relative binding free energy” value was -0.01 kcal/mol. In the case of TATTTCACGTGTTCAG, the “relative binding free energy” value was 0.22 kcal/mol. For GTTAGCACGTGCTAGT, the “relative binding free energy” value was -0.14 kcal/mol. TTGTTCACGTGTATCA was tested, and the “relative binding free energy” value was 0.18 kcal/mol. In the case of GAGAACACGTGGGATG, the “relative binding free energy” value was 0.07 kcal/mol. TTGTACACGTGGTCGT was tested, and the “relative binding free energy” value was 0.04 kcal/mol. In the case of TTAGTCACGTGTTGGG, the “relative binding free energy” value was 0.14 kcal/mol. For AGGCTCACGTGGATTT, the “relative binding free energy” value was 0.24 kcal/mol. With TGAGACACGTGTGTCG the “relative binding free energy” value was 0.2 kcal/mol. In the case of TCTGTCACGTGGAATG, the “relative binding free energy” value was 0.22 kcal/mol. In the case of GCGTGCACGTGGCTGG, the “relative binding free energy” value was -0.15 kcal/mol. TGGGGCACGTGAGTAC was tested, and the “relative binding free energy” value was 0.04 kcal/mol. TGGCTCACGTGTAAGT was tested, and the “relative binding free energy” value was 0.14 kcal/mol. For GAGGCCACGTGAAGTG, the “relative binding free energy” value was 0.42 kcal/mol. In the case of GTGAGCACGTGGACTG, the “relative binding free energy” value was -0.12 kcal/mol. With TTACACACGTGGTGTG the “relative binding free energy” value was -0.19 kcal/mol.
